Experimental data reported in PubChem BioAssay AID488969 (Vanderbilt High Throughput Screening Facility, 2010).
The full ranking holds about 110,000 compounds; the median of “z-score” is about -0.1, and the highest 2% start at about 2. Some of the results follow. Calls of active or inactive are those of the source.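 The calls were made as follows: active = z-score in the third read window above 3 or below -3; inactive = the rest.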

These molecules were tested against Metabotropic glutamate receptor 8 (Rattus norvegicus) (UniProt P70579) (assay: rat mGluR8 modulators via GIRK flux, primary screen, cell-based, thallium flux, HTS (AID 488969)). Conditions: HEK293 rat mGluR8, GIRK (G protein-gated inwardly rectifying potassium channel) thallium flux, FluoZin2; at 10 µM; stronger effect = higher value; submaximal glutamate (EC20) added with thallium.
Chain of UniProt P70579 (P70579 whole entry, looked up): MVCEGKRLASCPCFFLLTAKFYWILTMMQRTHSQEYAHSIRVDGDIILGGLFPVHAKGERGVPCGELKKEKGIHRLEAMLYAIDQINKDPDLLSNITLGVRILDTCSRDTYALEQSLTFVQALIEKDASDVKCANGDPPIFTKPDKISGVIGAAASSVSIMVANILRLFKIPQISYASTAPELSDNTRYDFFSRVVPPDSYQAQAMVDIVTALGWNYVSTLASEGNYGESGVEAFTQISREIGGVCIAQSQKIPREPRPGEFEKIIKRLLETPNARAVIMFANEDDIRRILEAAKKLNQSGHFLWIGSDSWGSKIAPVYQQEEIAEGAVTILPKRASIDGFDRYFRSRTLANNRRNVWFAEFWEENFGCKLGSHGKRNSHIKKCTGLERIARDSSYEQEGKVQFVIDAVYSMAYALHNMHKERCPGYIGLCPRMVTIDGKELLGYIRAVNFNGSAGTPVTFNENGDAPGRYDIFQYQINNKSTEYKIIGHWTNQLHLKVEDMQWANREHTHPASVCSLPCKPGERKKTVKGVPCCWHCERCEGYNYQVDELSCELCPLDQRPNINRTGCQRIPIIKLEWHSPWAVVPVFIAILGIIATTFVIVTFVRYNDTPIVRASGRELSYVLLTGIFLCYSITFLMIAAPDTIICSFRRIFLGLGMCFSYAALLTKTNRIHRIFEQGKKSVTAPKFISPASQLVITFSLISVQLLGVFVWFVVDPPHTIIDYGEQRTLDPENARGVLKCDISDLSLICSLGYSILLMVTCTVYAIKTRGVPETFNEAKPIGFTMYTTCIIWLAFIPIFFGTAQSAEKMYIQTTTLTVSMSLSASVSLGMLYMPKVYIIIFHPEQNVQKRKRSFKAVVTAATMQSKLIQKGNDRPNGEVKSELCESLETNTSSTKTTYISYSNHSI

Row | Compound | z-score
1 | COc1ccc(OCCCC(=O)NCCc2ccccc2)cc1 | -0.148
2 | COc1ccc(NC(=O)c2cc(C(C)C)on2)cc1OC | -0.725
3 | N#CC(C(=O)Nc1ccc(Cl)c(Cl)c1)=C1Nc2ccccc2N1 | 0.855
4 | CSc1ccc(S(=O)(=O)NC2CCCCCC2)cc1 | 1.93
5 | COCC(=O)N(C)C1(c2nnnn2CCOC(=O)Nc2cccc3ccccc23)CCCC1 | -0.0298
6 | CCCc1cc(=O)[nH]c(NCc2ccc(Cl)cc2)n1 | -0.348
7 | COC(=O)c1cc(C)sc1NC(=O)c1cccnc1 | -0.497
8 | Cc1csc(NC(=O)C2C3C=CC(C3)C2C(=O)O)n1 (stereo unspecified) | 0.819
9 | CCOC(=O)COc1ccc(Br)cc1C1NC(=O)NC(C)=C1C(=O)NCc1ccccc1 (stereo unspecified) | -0.34
10 | Cn1cnnc1SCC(=O)c1ccc2c(c1)OCCO2 | -0.351
11 | CCCCC(=O)Nc1cc(C)c2c(=O)oc3ccccc3c2n1 | -0.115
12 | Cn1cccc1/C=N/NC(=O)Cn1cnc2ccccc21 | -0.101
13 | Cc1cc(-c2ccccc2)c2c3c(cn2n1)c(=O)n(C)c(=O)n3C | -0.658
14 | COC(=O)C(NC(=O)c1ccc(F)cc1)(Nc1ncc(S(=O)(=O)c2ccc([N+](=O)[O-])cc2)s1)C(F)(F)F (stereo unspecified) | -0.342
15 | Cc1ccn2cc(CSc3ccccc3N)nc2c1 | -0.125
16 | OC(Cn1ccnc1)c1ccc(Cl)cc1Cl (stereo unspecified) | 0.579
17 | COc1ccc(C(C[N+](=O)[O-])n2nc(C)cc2C)cc1 (stereo unspecified) | 0.648
18 | Cc1ccc(SCC(=O)O/N=C(\N)c2ccc([N+](=O)[O-])cc2)cc1 | -0.289
19 | CCC1CCCCN1C(=O)CSc1nc2c(cnn2-c2ccc(C)cc2)c(=O)[nH]1 (stereo unspecified) | 0.0615
20 | CCOc1ccc(NC(=O)Nc2cc(OCC(F)(F)F)cc(OCC(F)(F)F)c2)cc1 | -0.0789
21 | COc1cccc(=O)c2c(C)n(-c3cc(C)cc(C)c3)c(C)c12 | -0.367
22 | CCOC(=O)N1CCC(Nc2c(OCC)c(=O)c2=O)CC1 | -0.0426
23 | CCN(CC)S(=O)(=O)c1ccc(NC(=O)CC(NC(C)=O)c2ccccc2)cc1 (stereo unspecified) | -0.224

Row | Compound | z-score
24 | O=C1C2C(C(=O)N1CCc1ccccc1)C1C=CC2C12CC2 (stereo unspecified) | 0.134
25 | CC(C)(C)CNc1cc(N2CCCC2)ccc1[N+](=O)[O-] | -0.495
26 | CN1CCN(S(=O)(=O)c2ccc(Br)s2)CC1 | -0.0381
27 | NC(=O)C1(N2CCCCC2)CCN(C(=O)CSc2nc3ccccc3[nH]2)CC1 | -0.432
28 | Cc1ccc(S(=O)(=O)N2CCN(S(=O)(=O)N3CCOCC3)CC2)cc1C | 0.35
29 | CCN(CC)c1ccc(C2CC(=O)NC3=C2C(=O)CC(C)(C)C3)cc1 (stereo unspecified) | -1.64
30 | c1ccc2c(c1)NC(CN1CCOCC1)CO2 (stereo unspecified) | 0.144
31 | Cc1n[nH]c(C)c1CCc1nc2c3ccccc3nc(SCC(=O)Nc3ccccc3F)n2n1 | -0.0964
32 | COc1cccc(N2C(=O)C3CCCN3C2c2ccc(F)cc2)c1 (stereo unspecified) | -0.0703
33 | CC(NC(=O)Cc1cccs1)c1ccc2c(c1)OCO2 (stereo unspecified) | 0.924
34 | O=C(c1cnn2c(C(F)F)cc(C3CC3)nc12)N1CCc2ccccc2C1 | -1.15
35 | COc1ccc(CCNC(=O)CN2CCC(C)CC2)cc1OC | 0.376
36 | CCC(C)(C)NC(=O)c1cc(C(=O)OC)cc([N+](=O)[O-])c1 | 0.4
37 | NC(=O)C1(N2CCCCC2)CCN(C2CC(=O)NC2=O)CC1 (stereo unspecified) | 0.782
38 | Cc1ccc(N2C(=O)C3C4C=CC(CNC(=S)Nc5cccc(Cl)c5)(O4)C3C2=O)cc1 (stereo unspecified) | -0.15
39 | Cn1cc(S(=O)(=O)Nc2ccc(Br)cc2F)c(=O)n(C)c1=O | 0.532
40 | CSc1nsc(SCC(=O)Nc2ccc(Br)cn2)n1 | -0.419
41 | COCCNC(=O)C1=C(N)C(C(=O)Nc2ccc(C)c(S(=O)(=O)N3CCCCC3)c2)SC1=Nc1ccc(C)cc1C (stereo unspecified) | -0.143
42 | COc1cc(/C=N/NC(=O)CCC(=O)NCc2ccccc2)cc(OC)c1OC | 0.16
43 | Cc1ccc(C(=O)c2coc3ccc(OCC(=O)O)cc23)cc1 | -1.87
44 | Cc1ccc(S(=O)(=O)N/N=c2\sc3ccccc3n2C)cc1 | 0.783
45 | Cc1nnc(SCc2ccon2)n1-c1ccccc1 | 1.31
46 | Cc1ccc(-c2cc(C(=O)N/N=C/c3c[nH]c4ccccc34)n[nH]2)o1 | -0.212

Row | Compound | z-score
47 | Cn1c(NCC2CCCO2)nc2c1c(=O)n(Cc1ccccc1)c(=O)n2C (stereo unspecified) | -0.136
48 | COc1ccccc1NC(=O)CSc1nnnn1-c1ccc2c(c1)OCO2 | -0.755
49 | CCN(CC)CC(O)Cn1c2ccccc2c2ccccc21 (stereo unspecified) | 0.977
50 | Cc1ccc(N2C(=O)/C(=C/c3cccnc3)SC2=S)cc1 | 0.0454
51 | NC(=S)NN=C1c2cc(S(=O)(=O)N3CCOCC3)ccc2-c2ccc(S(=O)(=O)N3CCOCC3)cc21 | 0.0882
52 | CN(c1cccc(Cl)c1)S(=O)(=O)c1cccc(C(=O)Nc2ccc3c(c2)CCC3)c1 | -0.241
53 | COc1cccc(OCCNc2cc(N3CCOCC3)ccc2[N+](=O)[O-])c1 | -0.191
54 | Cc1ccc(C(=O)C[n+]2ccc(-c3nnc4n3CCC4)cc2)cc1 | -0.141
55 | Cn1cnc2c1c(=O)n(Cc1cccc(Br)c1)c(=O)n2C | 0.157
56 | CC1CN(C(c2ccco2)c2sc3ncnn3c2O)CC(C)O1 (stereo unspecified) | -0.0394
57 | CC(C)Oc1snc(Cl)c1C(N)=O | -0.0324
58 | O=C(c1ccc(Br)o1)N1CCN(Cc2ccc3c(c2)OCO3)CC1 | -1.48
59 | O=C(Cn1nnc(-c2ccccc2F)n1)Nc1ccc(S(=O)(=O)NC2CCCC2)cc1 | 0.00767
60 | COc1ccc(-c2oc3ncn(Cc4ccco4)c(=N)c3c2-c2ccc(OC)cc2)cc1 | 0.282
61 | CCCNC(=O)c1cc(SC)ccc1Cl | 0.0122
62 | CC1=C(C(=O)Nc2ccc(C)cc2)C(c2ccc(C)o2)C2=C(CC(C)(C)CC2=O)N1 (stereo unspecified) | 0.024
63 | CCCC1Cc2c(sc(NC(=S)NC(=O)c3ccccc3)c2C#N)CO1 (stereo unspecified) | 0.489
64 | O=C(COC(=O)C1CCN(S(=O)(=O)c2ccccc2)CC1)NC(=O)c1ccc(OC(F)F)cc1 | 0.0288
65 | COc1ccc(NCc2n[nH]c(=O)c3ccccc23)cc1 | 0.491
66 | O=C(CCSc1ccccc1)NCC1CCCO1 (stereo unspecified) | 0.287
67 | CCOc1ccc(CCNC(=O)CCCN2C(=O)c3ccccc3C2=O)cc1OCC | 0.111
68 | N#Cc1nc(Cc2ccccc2)oc1NCc1ccccc1 | -0.376
69 | CCCC(=O)NC(=S)Nc1ccccc1F | 0.262

Row | Compound | z-score
70 | Cn1cccc1C(=O)NC(=O)COC(=O)CC12CC3CC(CC(C3)C1)C2 | 0.405
71 | O=C(Nc1nccc(-c2cccs2)n1)c1ccccc1Cl | -0.118
72 | O=C(Nc1cc(SCCO)cc([N+](=O)[O-])c1)c1ccc(Br)o1 | -0.169
73 | CCOc1ccc(-n2c(SCC(=O)c3c(N)n(C)c(=O)n(C)c3=O)nnc2-c2cccnc2)cc1 | -0.21
74 | O=C1c2ccccc2NC(c2ccc(O)cc2)N1Cc1ccco1 (stereo unspecified) | 0.0885
75 | O=C(CN1CCCCC1)Nc1ccc(NC(=O)c2ccc(Cl)cc2)cc1Cl | -0.0147
76 | CC(=O)Nc1sc2c(c1C#N)CCCCC2 | -0.296
77 | CC1CCN(c2ccc(C(=O)N3CCOCC3)cc2[N+](=O)[O-])CC1 | 0.0207
78 | CCCCCNc1nc(-c2ccccc2)cs1 | active: 3.86
79 | Cc1ccc(-n2c3c(c(=O)[nH]c2=O)C(NS(=O)(=O)c2ccc(Cl)cc2)(C(F)(F)F)C(=O)N3)cc1 (stereo unspecified) | 0.621
80 | O=C(CNc1cccc(Cl)c1)c1ccc(Cl)cc1 | -0.405
81 | Cc1ccc(C(=O)Oc2ccc(C(=O)COC(=O)C3CC(=O)N(Cc4ccco4)C3)cc2)cc1 (stereo unspecified) | -0.0653
82 | CCOC(=O)c1cc2sccc2n1CCCN1C(=O)c2ccccc2C1=O | 0.0234
83 | CS(=O)(=O)N1N=C(c2ccc(Br)cc2)CC1c1cccs1 (stereo unspecified) | 0.394
84 | C=CCn1c(SCC(=O)Nc2cccc(OC)c2)nnc1-c1cccnc1 | -0.424
85 | Cc1nc(CNS(=O)(=O)c2cc(C)c(C)cc2C)cs1 | -0.0555
86 | O=C(NCc1ccc2c(c1)OCO2)c1cc2ncc(Br)cn2n1 | 0.244
87 | O=S(=O)(c1ccc(Br)cc1)N1CCCC1c1nc2ccccc2s1 (stereo unspecified) | -0.354
88 | CCCNC(=S)NCCN1CCCCC1 | -0.303
89 | Cc1c(C(=O)NNS(=O)(=O)c2ccccc2Cl)sc(=S)n1C | -0.175
90 | Cc1cccc(NC(=O)CSc2nnc(NC(=O)CN3CCOCC3)s2)c1 | 1.04
91 | CS(=O)(=O)n1nc(-c2ccccc2)nc1N | -0.262
92 | Cc1nc2ccc(S(=O)(=O)NC(C(=O)Nc3nc4ccc(Cl)cc4s3)C(C)C)cc2s1 (stereo unspecified) | -0.00466

Row | Compound | z-score
93 | CC(C)n1nc(C(=O)Oc2cc(Cl)ccc2Cl)c2ccccc2c1=O | 0.267
94 | CCc1c(O)nc(SCC(=O)Nc2ccc(OC)cc2)n(C2CCCCC2)c1=O | -2.85
95 | CCCn1c(CN2CCN(C(=O)c3ccco3)CC2)nc2c1c(=O)n(C)c(=O)n2C | -1.63
96 | CCCCC1S/C(=N/N=C/c2cccs2)NC1=O (stereo unspecified) | -0.292
97 | CC(=O)Nc1ccc(NC(=S)NC(=O)c2ccc([N+](=O)[O-])cc2)cc1 | -0.11
98 | Cc1ccc2[nH]c(=O)c(CN(Cc3cccs3)C(=S)NCc3ccco3)cc2c1 | 0.17
99 | CC(=O)Nc1ccc(N=Nc2ccccc2)cc1 | -0.0502
100 | O=C(NCCSc1c[nH]c2ccccc12)c1ccco1 | active: 3.57
101 | CCOc1ccccc1NC(=O)c1cc(CC(C)C)oc1C | -0.903
102 | COCCNC(=O)COc1ccc(C)c(C)c1 | 0.109
103 | CN1CCN(C(=O)c2c(NC(=O)c3ccco3)sc3c2CCC(C(C)(C)C)C3)CC1 (stereo unspecified) | 0.272
104 | COc1ccc(CCNC(=O)C(=O)NCC2CCCO2)cc1OC (stereo unspecified) | -0.0833
105 | Cc1cc2ncc(-c3ccc(Cl)cc3)c(N)n2n1 | -1.83
106 | CCCn1nc(C(=O)NCC(C)(C)N2CCOCC2)c2ccccc2c1=O | -0.0718
107 | CCN(CC)S(=O)(=O)c1ccc(/C(O)=C(\C#N)c2nc3ccccc3n2C)cc1 | -0.33
108 | CCN(c1ccccc1)S(=O)(=O)c1ccc(NC(=S)NC(=O)c2ccc(Br)o2)cc1 | active: 5.31
109 | Cc1ccc(-n2cc3c(-c4cccc(Br)c4)nnc(C)c3n2)cc1 | -0.478
110 | CC(C)(C)c1ccc(C(=O)CSc2n[nH]c(=O)[nH]c2=O)cc1 | -0.245
111 | Cc1c(Cl)cnc(NC(=O)COC(=O)c2cc3c(s2)CCC(C)C3)c1Cl (stereo unspecified) | -0.42
